Test results taken from article PMC4336329 (PLoS ONE, 2015).
In all, about 310,000 compounds went through this assay and about 2,200 (0.71%) showed an effect of 50% or more. Effects have a minus sign here. Some of the results follow.

Each molecule was assayed against human ether-à-go-go-related gene (hERG) potassium channel (human, UniProt Q12809) (assay: primary screen, population patch clamp on CHO cells stably expressing hERG).
Chain of human ether-à-go-go-related gene (hERG) potassium channel (Q12809 whole entry, looked up): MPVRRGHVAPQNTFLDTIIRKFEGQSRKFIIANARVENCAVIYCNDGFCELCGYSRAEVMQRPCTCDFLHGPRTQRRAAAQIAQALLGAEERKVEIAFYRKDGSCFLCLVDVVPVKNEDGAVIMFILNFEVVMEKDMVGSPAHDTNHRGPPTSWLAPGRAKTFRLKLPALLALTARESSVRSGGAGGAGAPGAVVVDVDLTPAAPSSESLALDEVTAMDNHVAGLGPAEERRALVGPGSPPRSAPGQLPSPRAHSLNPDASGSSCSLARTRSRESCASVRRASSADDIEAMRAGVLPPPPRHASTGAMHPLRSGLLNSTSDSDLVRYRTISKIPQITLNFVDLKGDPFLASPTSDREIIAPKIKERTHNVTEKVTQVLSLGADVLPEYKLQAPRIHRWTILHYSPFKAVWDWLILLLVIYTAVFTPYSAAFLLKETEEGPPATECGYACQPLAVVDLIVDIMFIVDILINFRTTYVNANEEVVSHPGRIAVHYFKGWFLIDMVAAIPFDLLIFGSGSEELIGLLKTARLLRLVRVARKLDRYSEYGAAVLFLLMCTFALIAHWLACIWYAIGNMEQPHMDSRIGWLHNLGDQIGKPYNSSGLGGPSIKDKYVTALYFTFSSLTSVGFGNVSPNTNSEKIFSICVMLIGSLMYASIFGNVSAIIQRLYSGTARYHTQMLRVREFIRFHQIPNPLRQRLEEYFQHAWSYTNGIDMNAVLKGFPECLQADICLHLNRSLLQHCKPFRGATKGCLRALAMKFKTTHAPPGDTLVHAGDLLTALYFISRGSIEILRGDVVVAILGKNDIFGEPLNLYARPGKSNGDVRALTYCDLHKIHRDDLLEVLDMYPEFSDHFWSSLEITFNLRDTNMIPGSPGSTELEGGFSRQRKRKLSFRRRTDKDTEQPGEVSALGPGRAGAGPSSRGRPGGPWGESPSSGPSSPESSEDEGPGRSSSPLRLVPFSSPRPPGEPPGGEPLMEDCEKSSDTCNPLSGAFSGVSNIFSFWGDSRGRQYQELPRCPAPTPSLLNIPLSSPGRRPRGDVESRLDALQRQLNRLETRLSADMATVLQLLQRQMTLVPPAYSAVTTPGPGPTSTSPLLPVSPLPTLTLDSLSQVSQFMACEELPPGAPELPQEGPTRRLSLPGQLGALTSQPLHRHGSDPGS

Compound | hERG current change (%, negative = inhibition) at 1uM [%]
O=C(CSc1nnc(C2CC2)n1Cc1ccco1)NCC(F)(F)F | 14.9
O=C1c2ccccc2C(=O)N1CN(C(=O)COc1ccccc1)c1ccc(F)cc1 | 10.7
COC(=O)c1sccc1NS(=O)(=O)c1ccc(OC)cc1 | -1.68
C1=CN2CCC1C(c1ccccc1)C2.Cl (centres unmarked) | 10.2
O=C(CN1CCN(c2ccccc2F)CC1)c1c[nH]c2ccccc12 | 10
COc1ccc(C#Cc2ccc3c(c2)c(=O)c2ccccc2n3C)cc1 | 14.2
C/C(=N\Nc1cc(C(F)(F)F)ccc1Cl)c1ccccc1O | 11.5
CCC(=O)OCc1c(C(F)(F)F)nn(C)c1Sc1ccc(Cl)cc1 | 6.95
Cc1ccc(S(=O)(=O)CC(=O)Nc2cccc(C)n2)cc1 | 9.16
Cc1cc2cc(C(=O)N3CCc4c([nH]c5ccccc45)C3c3ccccn3)ccc2o1 (centres unmarked) | 13.2
C=C1CCN([C@@H](CC(C)C)C(=O)NCc2ccc(Cl)cc2)S(=O)(=O)c2ccccc21 | 16.5
CCC(COC(=O)Nc1ccccc1)NC(=O)OC(C)C (centres unmarked) | 6.87
CCCCCc1cc(=O)oc2c(C(CCN3CCN(c4ccccc4)CC3)c3ccc(N(C)C)cc3)c(OC)cc(OC)c12 (centres unmarked) | 7.79
O=C(c1cc(COc2ccc(F)cc2F)on1)N1CCN(C(=O)c2ccco2)CC1 | -17.6
Cc1ccc(C(C)C)cc1OCCN1CCCC1 | -2.61
CC(C)CNC(=O)C(=O)NCCCN1CCOCC1 | -2.49
CCNC(=O)NC(=O)C(C)OC(=O)CCCc1nc2ccccc2s1 (centres unmarked) | 13.9
COc1ccc(OCCNS(=O)(=O)Cc2ccccc2)cc1 | 5.16
O=C(c1ccc(OC2CCN(Cc3cccc(OCCO)c3)CC2)cc1)N1CCCC1 | 1.86
Cc1cccc(C2Nc3ccccc3C(=O)N2c2ccc(F)cc2)n1 (centres unmarked) | -10.1
COc1ccc(SCc2noc(C(=O)NC(C)C)c2C(=O)O)cc1 | 12.4
COc1ccc2c(c1OC)C(=O)OC2Nc1nc(-c2cc3ccccc3oc2=O)cs1 (centres unmarked) | 4.4

Compound | hERG current change (%, negative = inhibition) at 1uM [%]
O=C(N/N=C/c1ccsc1)c1ccccn1 | 16.7
COc1ccc(NS(=O)(=O)c2ccc(NC(=O)C(CCSC)NC(N)=O)cc2)cc1 (centres unmarked) | 16.6
Cn1c(CN2CCN(C(=O)c3ccc(F)cc3)CC2)nc2cc([N+](=O)[O-])ccc21 | -59.1
CCOC(=O)c1ccc(-c2c(-c3ccccc3OC)sc3cc4c(cc23)OCO4)cc1F | 13.5
CCOc1ccc(NC(=O)NCC2CCN(Cc3ccc(F)cc3)CC2)cc1 | -18.3
N#CCSc1ccccc1NC(=O)COc1ccc(-c2nnco2)cc1 | -24.5
Cc1ccc(S(=O)(=O)NNc2nc3ccccc3nc2C(F)(F)F)cc1 | 10.4
O=C(Nn1c(COc2ccccc2)nc2ccccc2c1=O)C(Cl)(Cl)Cl | 8.75
CCc1ccccc1N1CC23C=CC(O2)C(C(=O)O)C3C1=O (centres unmarked) | 8
COc1cc(OC)cc(-c2c(C#Cc3ccsc3)c3cc(-c4ccc(C(N)=O)cc4)ccc3n2C)c1 | 18.1
Cc1ccc(SCc2nc(N)nc(Nc3ccccc3C)n2)cc1C | 10.5
Cc1ccc(S(=O)(=O)c2nnn3c2nc(N2CCOCC2)c2ccccc23)cc1C | 14.6
O=C(NC1CCCc2ccccc21)c1cncc(Br)c1 (centres unmarked) | 11
N#Cc1ccc(Oc2ccc(-c3nc4ccccc4nc3-c3ccccc3)cc2)cc1C#N | 12.6
O=C(NCC1CC1)Nc1cccs1 | 15.4
CCC1(C(=O)OC)CCc2c(cc(OC)c3ccccc23)C1=O (centres unmarked) | 7.96
COc1ccc2nc(N3CCCC3)[nH]c2c1.Cl | 7.5
COC(=O)c1ccc(CSc2nnc3c(Cl)cc(Cl)cn23)o1 | 13.8
CCOC(=O)c1c(C)oc2c1c(C=NC1CCS(=O)(=O)C1)c(O)c1ccccc12 (centres unmarked) | 1.48
O=C(Cc1ccc(Cl)c(Cl)c1)OCC(=O)c1ccc[nH]1 | 8.79
CCc1cccc(OCCOCCN2CCCC2)c1.O=C(O)C(=O)O | -17.6
O=C(OCC(=O)N1CCCC1)c1ccc(Cl)c([N+](=O)[O-])c1 | 0.53
